# Reference: PubChem BioAssay AID652104 (National Center for Advancing Translational Sciences (NCATS), 2013)
# Among all 410,000 compounds or so, about 7,200 (1.8%) were called active. Inconclusive results, whose numbers are uncertain, are shown with a selection of clear calls. Calls follow the shape of the dose curve; as a rule, active = well fitted activation curve with a large enough effect; inconclusive = small, poorly fitted or top-dose-only effect, or another doubt; inactive = no such curve, though single readings can be large or run the other way. No potency is given beside an inconclusive call; the fits are too rough.
# Experiment: qHTS of TDP-43 Inhibitors; also: nearly all actives have a fitted effect of over 50% in size; as to growth rescue (activation): % of control where 0% means no effect
# Conditions: TDP-43 expressing yeast growth rescue, BacTiter-Glo, 24 h; growth rescue (activation): at 46.1 µM (top of the series) unless noted
# Summary of the method: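 Yeast cells expressing TDP-43 under galactose induction are exposed to compounds for 24 hr at 30 deg C. BacTiter-Glo luminescence measures growth, so protective compounds score as activators.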
# Potency is read from the fitted curve at half-maximal effect; tags tell the direction and shape of the fitted curve.
SMILES,Potency,growth rescue (activation)
COC(=O)CSc1nn(-c2ccc(F)cc2)c(=S)s1,"inconclusive [activator, partial curve]",–
Cc1cc2c([nH]c3ccccc32)c2c1OC(C)(C)C=C2,active: 28.2 µM,–
CCN=c1scc(C)n1/N=C/c1cc(Br)c(O)c(OC)c1,"inconclusive [activator, single point]",–
O=C(CSc1nc2ccccc2s1)Nc1ncccn1,inactive,–
CN(C)S(=O)(=O)Oc1ccsc1C(=O)Nc1cccc(Cl)c1Cl,active: 17.8 µM,–
CCCCCCCN(C(=O)CCl)c1cccc(C)c1,inactive,–
Cc1ccc(NC(=O)N2CCC(C(=O)c3ccc(F)cc3)CC2)cc1,"inconclusive [activator, single point]",–
O=C(C/C=N\OCc1ccc([N+](=O)[O-])cc1)Nc1ccc(Cl)cc1,"inconclusive [activator, single point]",–
CC(=O)Nc1cc(-c2cccc(NS(C)(=O)=O)c2)cn2c(-c3ccc(F)c(Cl)c3)cnc12,"inconclusive [activator, full curve, poor fit]",–
CN1CCCN(C(=O)Cc2c(Cl)cccc2Cl)c2nc3ccccc3nc21,active: 22.4 µM,–
O=C(O)C1C2C=CC(CC2)C1C(=O)O (stereo unspecified),active: 20 µM,–
C=CCn1c(=O)c(C(C)=O)cn(N(C)c2ncc(C(F)(F)F)cc2Cl)c1=O,"inconclusive [activator, single point]",–
COc1cc(C)ccc1OCC(=O)NCC1CCCO1 (stereo unspecified),"inconclusive [activator, partial curve, poor fit]",–
O=c1[nH]nc(-c2ccc(F)cc2)cc1Cc1cccs1,"inconclusive [activator, single point]",–
Cc1nc(CNS(=O)(=O)c2cccc(F)c2)cs1,inactive,–
S=C(Nc1ccc(Nc2ccccc2)cc1)Nc1ccccn1,"inconclusive [activator, single point]",–
CCOc1ccccc1NC(=O)CSc1nccn1-c1cccc(C)c1,active: 17.8 µM,–
Cc1ccc(NC(=O)/C=C\C(=O)N(c2ccc(C(C)C)cc2)C(C(=O)NCc2ccco2)c2ccc(F)cc2)cc1 (stereo unspecified),inactive,–
O=c1ccc2cc3c4c(c2o1)CCCN4CCC3,"inconclusive [activator, partial curve]",–
O=c1cnn([C@@H]2O[C@H](CO)[C@@H](O)[C@H]2O)c(=O)[nH]1,inactive,–
COc1ccc2c(c1)[C@@H]1[C@H](CO2)[C@H](c2ccccc2)[C@]2(C)C(=O)Nc3ccc(C)cc3C(=O)N12,"inconclusive [activator, single point]",–
CCCSc1ncc(Cl)c(C(=O)Nc2sc3c(c2C(=O)OC)CCCC3)n1,"inconclusive [activator, full curve]",–
Cc1cccc(C)c1NC(=O)CC1SC2=NCCN2C1=O (stereo unspecified),inactive,–

SMILES,Potency,growth rescue (activation)
COc1ccccc1-c1csc(C(O)c2ccc(F)c(F)c2)n1 (stereo unspecified),"inconclusive [activator, single point]",–
O=C(CSCc1cnn(-c2ccccc2)c1-n1cccc1)NCc1cccc(Cl)c1,"inconclusive [activator, single point]",–
O=C(Nc1ccccc1Cl)c1ccc([N+](=O)[O-])o1,"inconclusive [activator, single point]",–
CC1(C(=O)NS(=O)(=O)c2cccc(F)c2)CCN1C(=O)c1cccc2ccccc12 (stereo unspecified),"inconclusive [activator, partial curve, poor fit]",–
O=C(/C=C/c1ccccc1)c1ccccc1O,"inconclusive [activator, single point]",–
CCCn1cc(NC(=O)C2CC(c3cccc(Br)c3)=NO2)cn1 (stereo unspecified),"inconclusive [activator, partial curve]",–
Cc1ccc(NC(=O)Cn2cc(S(=O)(=O)Cc3ccc(F)cc3)c3ccccc32)cc1Cl,inactive,–
O=C(COC(=O)/C=C/c1ccc(Cl)cc1)NC1CCCCCC1,inactive,–
CN1C(=O)c2ccc(Oc3ccccc3)cc2C1=O,"inconclusive [activator, single point]",–
O=C1c2cccc(OCC(=O)N3CCCc4ccccc43)c2CCN1Cc1cccnc1,–,inactive: -16% [at 9.22 µM]
Cc1noc(C)c1-c1ccc(C(=O)NCc2ccco2)c2occc12,"inconclusive [activator, single point]",–
CC(C)Cc1cc(C(=O)Nc2ccc3c(c2)OCO3)no1,"inconclusive [activator, full curve]",–
O=C(NCc1ccncc1)C1Cc2c(-c3ccc4c(c3)OCO4)ccnc2O1 (stereo unspecified),inactive,–
CCCCOc1ncnc2c1[nH]c1ccc(C)cc12,"inconclusive [activator, full curve, poor fit]",–
Cc1nc(-c2cccc(NC(=O)c3cccs3)c2)cs1,"inconclusive [activator, single point]",–
Cc1noc(C)c1-c1ccc(C(=O)NCCN2CCOCC2)c2occc12,inactive,–
CC(=O)c1cccc(Nc2ccc(C#N)cc2)c1,"inconclusive [activator, partial curve, poor fit]",–
O=C(OCc1ccc(Cl)c(Cl)c1)c1ccc[nH]1,"inconclusive [activator, single point]",–
CSC1=NCCN1C(=O)Cc1ccc(-c2ccccc2)cc1,"inconclusive [activator, single point]",–
CCc1nn(C(C)C(=O)N2CCN(c3ccccc3)CC2)c(=O)c2cc3occc3n12 (stereo unspecified),"inconclusive [activator, single point]",–
CCN(CC)C(=S)SCC(=O)c1ccc(F)cc1,"inconclusive [activator, single point]",–
O=C(NCc1ccc(C(F)(F)F)cc1)c1cccc2c(-c3cccnc3)coc12,active: 12.6 µM,–
Cn1nnnc1SCCCNCc1cccc(OCc2ccc(F)cc2)c1,"inconclusive [activator, partial curve]",–
